# Test results from PMC6919601, “Identification of Plasmodium dipeptidyl aminopeptidase allosteric inhibitors by high throughput screening” (PLoS ONE, 2019).
# The whole screen tested about 110,000 compounds, of which about 230 (0.21%) showed an effect of 50% or more. Some of the results follow.
# Target: DPAP1 (Plasmodium falciparum, UniProt Q8IIJ9)
# Assay: primary screen, percent inhibition; read by cleavage of a fluorogenic dipeptide substrate; higher = more effect of the substance
# Set-up: species or system P. falciparum D10 trophozoite lysates; single well
# 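Further: 30 min substrate incubation versus DMSO and 10 µM JCP410 controls.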
# Chain of DPAP1 (Q8IIJ9 whole entry, looked up): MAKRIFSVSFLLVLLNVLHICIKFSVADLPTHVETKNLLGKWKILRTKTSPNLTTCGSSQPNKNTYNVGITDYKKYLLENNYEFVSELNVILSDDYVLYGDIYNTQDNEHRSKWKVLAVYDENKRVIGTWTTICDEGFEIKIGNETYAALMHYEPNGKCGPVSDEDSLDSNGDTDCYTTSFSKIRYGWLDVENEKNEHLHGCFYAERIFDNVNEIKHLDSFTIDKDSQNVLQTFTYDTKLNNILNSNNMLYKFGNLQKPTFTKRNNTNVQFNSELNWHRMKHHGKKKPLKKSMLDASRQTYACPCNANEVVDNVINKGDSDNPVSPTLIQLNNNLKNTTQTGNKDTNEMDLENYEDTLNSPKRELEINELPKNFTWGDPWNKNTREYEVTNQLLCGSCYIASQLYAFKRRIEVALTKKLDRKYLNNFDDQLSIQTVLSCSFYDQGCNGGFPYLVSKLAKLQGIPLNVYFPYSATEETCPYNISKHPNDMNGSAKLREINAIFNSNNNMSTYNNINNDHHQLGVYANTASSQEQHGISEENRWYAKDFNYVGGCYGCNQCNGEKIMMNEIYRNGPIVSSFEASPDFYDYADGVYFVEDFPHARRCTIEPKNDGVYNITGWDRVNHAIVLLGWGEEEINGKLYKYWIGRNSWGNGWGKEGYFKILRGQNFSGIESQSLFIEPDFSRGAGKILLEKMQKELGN
row,SMILES,% Inhibition @ 10 uM [%]
1,CC1(C)CC2=NCN(CCCN3CCOCC3)CC2=C(O)C1,3.93
2,O=C(Nc1c(C(=O)c2ccc(F)cc2)oc2ccccc12)c1cccs1,-3.14
3,O=C(O)C1Cc2ccccc2CN1S(=O)(=O)c1cccs1 (centres unmarked),-0.251
4,c1ccc(CCNC2CCCCCC2)nc1,3.15
5,CC(C)C[C@H](NC(=O)c1ccc(N2CCN(C)CC2)cc1)C(=O)NC1(C#N)CCSC1 (some centres unmarked),-1.41
6,COc1cc(CNC(=O)Cn2nc(C)c3c(C)n(-c4ccccc4)nc3c2=O)cc(OC)c1OC,10.4
7,Cc1ccc(-c2cn3nc(N4CCCC(C(=O)NCCC5=CCCCC5)C4)sc3n2)cc1 (centres unmarked),4.91
8,COc1ccc(-c2noc(NC3CCCc4ccccc43)n2)cc1OC (centres unmarked),3.27
9,Cc1nn(-c2ccccc2)c(C)c1CC(=O)N(c1ccccc1)c1ccccc1,1.7
10,CC1(C)CC(=O)c2cc(-c3ccccc3)n(-c3ccccc3F)c2C1,0.132
11,N#CCc1ccc(NC(=O)CCc2ccccc2)cc1,1.72
12,COc1ccc(CN2CCN(Cc3ccc(OC)c(Br)c3)CC2)cc1,3.7
13,COc1ccc(C(=O)NCCn2cc(SCC(=O)NC3CCCCC3)c3ccccc32)cc1,0.231
14,O=C(Nc1c(Cl)cc(Cl)cc1C(=O)NCC1CCCO1)c1ccco1 (centres unmarked),-1.41
15,COc1ccccc1-c1c(C(F)(F)F)oc2c(CN(C)C)c(O)ccc2c1=O,1.58
16,Cn1cccc1Cc1nnc(SCC(=O)NCc2ccco2)n1-c1ccccc1,-3.1
17,COc1ccccc1/C=C/c1nc(C#N)c(NCCN(C)C)o1,-4.39
18,CCC(CC)C(=O)N1CCN(C(=O)C(CC)CC)CC1,-9.31
19,CC(=O)Nc1nc(NC(C)=O)n(-c2ccccc2)n1,-1.6
20,O=C(Cc1ccccc1)NCCc1nc2ccccc2[nH]1,-0.0235
21,COc1ccc(CCNCc2c(C(=O)O)n(Cc3ccccc3C)c3cc(C)ccc23)c(OC)c1,2.28
22,COc1ccccc1S(=O)(=O)Cc1ccc(C(=O)N2CCOCC2)o1,2.14
23,COc1cccc(-c2n[nH]c(SCc3cc(=O)n4oc(C)cc4n3)n2)c1,3.12
24,Cc1nn2cc(-c3ccc(Cl)cc3)nc2s1,-0.386
25,COc1ccc(CNc2cc(C)ccn2)cc1,-1.86
26,COc1ccc(C(CC(=O)NCc2ccccn2)N2Cc3ccccc3C2=O)cc1 (centres unmarked),2.65

row,SMILES,% Inhibition @ 10 uM [%]
1,Cc1nc2ccccc2c(=O)n1-c1ccc(O)cc1,-4.82
2,O=C(O)CC1NC(=O)c2ccccc21 (centres unmarked),-9.82
3,O=C1NC(=O)/C(=C\c2ccc(Br)cc2)S1,-1.05
4,CC1CCN(c2c(NCc3ccc(C(=O)N4CC=C(c5ccccc5)CC4)cc3)c(=O)c2=O)CC1,2.76
5,CC(C)N(Cc1ccccc1)C(=O)c1ccccc1Br,0.135
6,COCCCN1C(=O)C(O)=C(C(=O)c2ccccc2)C1c1ccc(C(C)(C)C)cc1 (centres unmarked),-3.34
7,Cc1cc(/C=C2/C(=N)N3C(=NC2=O)SN=C3S(=O)(=O)CC(C)C)c(C)n1Cc1ccccc1,0.163
8,CCCCS(=O)(=O)N1CCC(Oc2ccc(-n3cnnn3)cc2)CC1,3.88
9,CC1CCCN(CCCNC(=O)C2CCN(S(=O)(=O)N3CCC4(CC3)OCCO4)CC2)C1 (centres unmarked),0.514
10,CC1(C)CC(=O)C2=C(C1)OC(N)=C(C#N)C2c1ccc(Br)o1 (centres unmarked),-3.13
11,COc1c(I)cc(CC(NC(=O)OC(C)(C)C)C(=O)NCC#N)cc1I (centres unmarked),-6.46
12,COc1cccc(C(=O)NCCC2=CCCCC2)c1,-4.89
13,O=C(O)C1CSC(c2ccc(F)cc2)N1C(=O)Cc1ccc(Cl)cc1 (centres unmarked),-5.51
14,N#Cc1cc2nc(O)[nH]c2cc1C#N,1.76
15,Cc1ccsc1/C=c1\sc2nc(-c3cccs3)nn2c1=O,-1.52
16,CCNC(=O)CCSc1ccc(C(C)(C)C)cc1,-0.425
17,Cc1cc(NC(=O)c2ccc3c(Cl)c4c(nc3c2)CCCC4)no1,3.6
18,Cc1ccc2c(CNCCc3ccco3)c(C(=O)O)n(Cc3ccccc3)c2c1,3.12
19,Cc1ccc(C)c(NCN2C(=O)C3CCCCC3C2=O)c1 (centres unmarked),0.324
20,CC[C@H](NC(=O)[C@H](CS(=O)(=O)Cc1ccccc1)NC(=O)N1CCOCC1)C(=O)c1nccn1C,-5.21
21,CC1(C)CC(=O)c2cc(-c3ccccc3)n(-c3ccc(F)cc3)c2C1,-3.14
22,CCC(C)NC(=O)C1(C)CCC(=O)N1CCc1ccc(C)cc1 (centres unmarked),-1.34
23,CSc1nc2c(cc1C#N)CCCC2,-6.82
24,Cc1ccc(-c2noc(/C=C/c3ccccc3)n2)cc1,-3.06
25,O=C(O)c1cc(NC(=O)C(c2ccccc2)c2ccccc2)cc(C(=O)O)c1,6.31
26,Cn1c(=O)c2c(ncn2CC(=O)Nc2cccnc2)n(C)c1=O,3.65

row,SMILES,% Inhibition @ 10 uM [%]
1,CCOC(=O)C1=C(CNCCc2ccc(OCC)cc2)NC(=O)NC1c1ccccc1 (centres unmarked),-1.3
2,Cc1ccccc1-c1cc(C(=O)N2CCOCC2)c2ccccc2n1,-5.19
3,CCN(Cc1ccccc1)C(=O)c1cc2c(=O)oc3ccccc3c2s1,4.24
4,CCCC[C@H](NC(=O)[C@H](CC(C)C)NC(=O)OCc1ccccc1)C(=O)C1Cc2ccccc2C1=O (some centres unmarked),-1.41
5,CC1CCC(N2CCN(CCOCCO)CC2)CC1 (centres unmarked),-7.68
6,CCOc1ccc(CCNCc2c(C(=O)O)c(C)n(Cc3c(F)cccc3Cl)c2C)cc1,1.41
7,COc1ccc(-c2csc(/C(C#N)=C/c3ccc(C)cc3)n2)cc1,0.467
8,N#Cc1c(-c2ccc(Cl)cc2)cc(-c2ccccc2)nc1SCc1ccccc1,-3.88
9,COc1ccc(/C=C2/NC(=O)N(Cc3ccc(F)cc3)C2=O)cc1O,5.83
10,O=C(O)CCC/N=C/c1c(O)[nH]c2ccccc12,3.04
11,CC(C)n1c(SCC(=O)NCc2ccccc2)nc2c(oc3ccccc32)c1=O,0.0695
12,COc1ccc(C)cc1N(CC(=O)NC1CC1)S(C)(=O)=O,2.5
13,Cc1ccc2c(cnn2C(=O)CCCC(=O)NCc2cccnc2)c1,11.1
14,C=CCNC(=O)c1onc(C)c1Cl,-1.7
15,CSc1ncccc1C(=O)N1CCN(S(=O)(=O)c2ccc(F)cc2)CC1,-5.03
16,COc1ccc(-c2cc(C(F)(F)F)n3ncc(C(=O)NCc4cn(C)nc4C)c3n2)cc1OC,2.32
17,CC(C)c1ccc(/C=C/C(=O)Nc2cccc(Cl)c2)cc1,-3.71
18,CCCN1CCC(N2CCN(CCO)CC2)CC1,2.5
19,O=C1CC(Cc2ccc(Cl)cc2)C(=O)N1c1ccc(F)cc1 (centres unmarked),3.65
20,CC(=O)Nc1cccc(NC(=O)c2ccc(C(=O)Nc3cccc(NC(C)=O)c3)nc2)c1,5.31
21,O=C(Nc1cccc(Cl)c1)N1CCN(c2ccc(F)cc2)CC1,-2.03
22,CC1=C(C)CC(C(=O)Nc2ccccc2Br)C(C(=O)O)C1 (centres unmarked),6.97
23,N#C/C(=C\c1ccc(O)cc1)c1nc2ccccc2[nH]1,-2.18
24,Cc1cccc(C)c1NC(=O)Cn1c(=O)sc2ccccc21,4.44
25,CCOc1ccc(NC(=O)/C(C#N)=C\c2c(C)[nH]c3ccccc23)cc1,2.05
26,Cc1ccc(-c2cn3nc(N4CCCC(C(=O)NCCc5ccccc5)C4)sc3n2)cc1 (centres unmarked),8.36

row,SMILES,% Inhibition @ 10 uM [%]
1,O=C(Nc1cccc(C(F)(F)F)c1)c1sc(-c2ccccc2)nc1-c1ccc([N+](=O)[O-])cc1,-2.15
2,CCc1ccccc1OCCN(CC)CC,4.57
3,Cc1cccc(OCC(=O)Nc2cc(Cl)cc(Cl)c2)c1,-5.95
4,Cc1ccc(S(=O)(=O)N2CCC(C(=O)NC3CCCCC3C)CC2)cc1 (centres unmarked),3.88
5,CC(NC(=O)C1CCN(c2nc3ccsc3c(=O)s2)CC1)c1ccccc1 (centres unmarked),2.17
6,CO/C(O)=C1\C(C)=NC2=C(C(=O)CC(c3cccs3)C2)C1c1ccc(OC)cc1OC (centres unmarked),0.238
7,CCCCC(=O)Nc1cccc(-c2cn3ccsc3n2)c1,3.99
8,CC(CNCc1c(C(=O)O)n(C)c2ccccc12)c1ccccc1 (centres unmarked),-1.44
9,O=C(NCCc1ccc(Cl)cc1)C(NS(=O)(=O)c1cccc2nsnc12)c1ccccc1 (centres unmarked),-3.23
10,CCCCN1C(=O)c2[nH]nc(-c3ccccc3O)c2C1c1ccc(O)c(OC)c1 (centres unmarked),-1.35
11,Sc1nc2ccccc2n1C1CCCCC1,12.2
12,CC(=O)c1cc2c(C)cc(=O)oc2cc1O,-5.26
13,COc1ccc(S(=O)(=O)NCc2csc3c2CCCC3)cc1F,6.64
14,Cc1cc(C)c(S(=O)(=O)NCc2csc(-c3ccccc3)n2)cc1C,0.953
15,COC(=O)C1=CN(C)C=C(C(=O)OC)C1c1cccc(O)c1,-1.48
16,CCN1CCN(C(=O)C2CCN(S(=O)(=O)c3ccc4[nH]c5c(c4c3)CCCCC5)CC2)CC1,-2.25
17,O=C(O)Cn1c(SCCOc2ccccc2)nc2ccccc21,-12.1
18,COc1cc(C2SCC(=O)N2CCN2CCCCC2)cc(OC)c1OC (centres unmarked),2.36
19,CCOc1ccc(C(=O)C2=C(O)C(=O)N(c3ccccn3)C2c2ccccc2F)c(C)c1 (centres unmarked),6.27
20,CCOC(=O)C1=C(C(F)(F)F)Nc2ncnn2C1c1ccc(C)cc1 (centres unmarked),1.73
21,c1ccc(-c2nonc2-c2ccccc2)cc1,1.7
22,Cc1ccc(NC(=O)c2ccc([N+](=O)[O-])cc2Cl)cc1C,4.03
23,COCCCNC(=O)c1cc(S(=O)(=O)N2CCCC(C)C2)ccc1F (centres unmarked),-3.78
